The record followed here is the supplement of paper PMC11417369.

± gives the standard deviation of the averaged measurements. Some of the results follow.

The subject of the experiment is PfAP2-LT AP2 domain (GST-tagged). Briefly: gcPBM binding intensity (ln(normalized median fluorescence intensity)); higher = stronger DNA binding. An outline of the steps: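 Probes on an Agilent 4 × 180k array were primer-extended, double-stranded and 36 bp long, taken from intergenic genomic regions, with negative controls added. GST-tagged P. falciparum DNA-binding domains from E. coli, about 25 μg on average, were applied to the array for 1 h in 1× PBS containing 1% milk, 0.2 mg/ml BSA, 0.5% salmon testes DNA and 0.03% Triton X-100. Binding intensity, obtained after Alexa488 anti-GST antibody detection and a 488 nm scan, is the highest Masliner-normalised natural-log median intensity across replicate spots of either probe orientation.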
As to “ATGTATATAAATATACGTACATAAATATAAGTATAG [XGTACX_site7155]”, the “gcPBM binding intensity (ln)” value was found to be 9.02 ± 0.35.
Next, “AACACGCGCAGACACACACACACACGCACATATATA [CACACA_site7104]”: 10.3 ± 0.28; “TTTTTTTTCTTTTTTTTAAGAAATAAATAAATAATT [XGTACX_negctrl_site137]”: 7.86 ± 0.55.
Next, “TTTTAACAAAACTAAATAATCATATATATAAGATAT [GTGCAC_negctrl_site298]”: 8.37 ± 0.39; “CATTTCTATATAAGCACACACGTGGAATTTTTTTTT [CACACA_site5537]”: 8.93 ± 0.42.
As for “TCATATTATAAATAAATAAATAAATATATATATATA [CACACA_negctrl_site577]”, the figure is 8.68 ± 0.23; as for “AAATCGTAATATATTTGTACTTATTTGAAAAATCCA [XGTACX_site8141]”, 8.49 ± 0.37; as for “AAAAAATATATATCACGTGGTAATATATATATATAT [XGTACX_negctrl_site252]”, 9.16 ± 0.14.
Turning to “TACATCTGTATATAAACACACAACAAAAATGCTTAC [CACACA_site3814]”, the “gcPBM binding intensity (ln)” value stood at 8.96 ± 0.39.
Next, “AATATATAAATAGATACACACATACATACATACATA [CACACA_site4301]”: 9.4 ± 0.27.
Next, “AAATTAAATCCGCACGCACACACACCGATTAATAAA [CACACA_site9321]”: 9.53 ± 0.19.
As for ACACCTATAAATTAAGTGCATTTTTTTTGATGTTAT, the figure is 8.79 ± 0.48; as for “TGTAATACAGAAAAAAGTACTAAAAAGAAAAGGATT [XGTACX_site3176]”, 8.89 ± 0.48; as for “TATTATATTTATTTATGTACACATATACTTAAATAA [XGTACX_site1355]”, 8.61 ± 0.49.
With “TTTTTTTTTTTAATATGTACGTAAAATAAGTTTAAA [XGTACX_site6495]”, the “gcPBM binding intensity (ln)” value was found to be 8.05 ± 0.38.
Next, “ACATTCAATCTACTGTGTACATATTAAACTTTGAAA [XGTACX_site2913]”: 8.78 ± 0.43; “TCCTTATAAAAATACACACAAACTTTAATTAAAACA [CACACA_site3730]”: 8.73 ± 0.36; “ATATATATACAACAAGCATGCAGTAATTTTTTTTTT [TGCATGCA_site728]”: 8.91 ± 0.36.
Next, “CTATAATAACATAACACACACATGTATTTATAGGTG [CACACA_site6298]”: 9.21 ± 0.28.
Next, “AGAAGTGTAAAAGTTACACACACAAACTTGTCATTT [CACACA_site4613]”: 9.38 ± 0.33.
“CCCAGGTGCTCGTAACGTACTTACATCAAATATTAT [XGTACX_site4617]”: the “gcPBM binding intensity (ln)” value came out at 8.84 ± 0.3.
As for “TATAAATAGATATATACACACTTGTGCAGAATATTA [CACACA_site7112]”, the figure is 8.98 ± 0.38; as for “AGGCGTGAAATATACGTACACACATTATTTATATTT [CACACA_site2558]”, 9.1 ± 0.39.
As for “AAATAAAAAGTAAAGCGTACAAATGATCAAATAATA [XGTACX_site7898]”, the figure is 9.06 ± 0.46; as for “TAATCAACAAAATCTACACACTAAAATGAAATATAA [CACACA_site3749]”, 8.91 ± 0.42; as for “AAATATTTATAAATTGCACACAAATAATAACATTAT [CACACA_site8737]”, 9 ± 0.45.
As for “ATAATAATATATACATGTACATATATATATATATAT [XGTACX_site3455]”, the figure is 9.62 ± 0.16; as for “TAACATTACTCTTAACTCTTTTGGATACCAACTTAT [XGTACX_negctrl_site82]”, 8.78 ± 0.63; as for “ATAGTATCTGGTAGCTGTACGAATGGTAGAGAGTAG [XGTACX_site2548]”, 9.05 ± 0.51.
For “ATATATATTCATAATACACACATTCTGTAGCATTAT [CACACA_site2067]”, the “gcPBM binding intensity (ln)” value turned out to be 9.07 ± 0.38.
Next, “TTAATTAAATATTATACACACAAAAAAATAATTTTA [CACACA_site96]”: 8.56 ± 0.47.
Next, “TATATATATGTATGATGTACATATATGCATATATAT [XGTACX_site3399]”: 8.82 ± 0.26; “AATAAAAAGATATTCTCCTTGTTCCTTTTTTTTAAA [CACACA_negctrl_site1147]”: 8.33 ± 0.45; “AATCTATATTGACACACACACAAAAAAAAAAAAAAA [CACACA_site6739]”: 9.3 ± 0.46.
Next, “ATTTTAACCAATTATTGTACTTGGTTATTCTTTTTT [XGTACX_site7453]”: 8.94 ± 0.45; “ATATATATATTAAAGGTGCACAAATAAATATATACA [GTGCAC_site9532]”: 9.12 ± 0.45.
As for “ATATTTTTTTTCTTCACACACATGAATTATATATAA [CACACA_site3216]”, the “gcPBM binding intensity (ln)” value worked out at 9.07 ± 0.38.
As for “AATATACACATTGTGAAATAACAAAAAAGGCAAAAA [CACACA_negctrl_site1014]”, the figure is 9.06 ± 0.53.
Next, “CCTATTTATATATACACACACATATATAAATAAATA [CACACA_site2991]”: 9.19 ± 0.23; “ATGGAAAAATGTATATATAAAATAAATATATTATAT [CACACA_negctrl_site1712]”: 8.69 ± 0.49.
As for “CATATTAAAAATACATGTACATATATATTTAATATA [XGTACX_site8580]”, the figure is 8.62 ± 0.49; as for “GTTTGTAAATATTTTACACACATATTTATTTATATA [CACACA_site6632]”, 8.82 ± 0.42; as for “TATAAATATGTGTTTACACACAATAATGAATTAAAA [CACACA_site6555]”, 8.88 ± 0.45.
In the case of “GTTAAAATAATATTATGTACATATATATAAAAATAT [XGTACX_site8512]”, the “gcPBM binding intensity (ln)” value came out at 8.72 ± 0.41.
For “AACCTCAAATACACAAGTACGTATAATAAGGAACAA [XGTACX_site4304]”, the “gcPBM binding intensity (ln)” value was determined as 9.12 ± 0.52.
